Binding signal (normalized occupancy) data for 172 sequences are collected here from publication PMC4242493.

This is one part of the list. The list includes weakly bound sequences.

The target in this assay is MaxL homodimer (UniProt P61244). In words: universal protein-binding microarray (PBM). As to conditions: PBS-based mixture, 10 nM His-tagged protein dimer, 2% milk, 200 ng/uL BSA, 50 ng/uL salmon testes DNA, 0.02% TX-100; detection with Alexa 488 anti-His …; high values mean tight binding; most listed sequences are background and not binding sites; double strand, one strand shown.
Chain of UniProt P61244 (P61244 whole entry): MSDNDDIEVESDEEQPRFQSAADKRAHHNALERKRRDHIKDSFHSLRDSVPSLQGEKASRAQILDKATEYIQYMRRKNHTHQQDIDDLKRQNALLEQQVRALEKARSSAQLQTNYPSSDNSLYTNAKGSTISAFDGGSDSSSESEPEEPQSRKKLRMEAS
In the case of GTTTTCCA, the binding signal (normalized occupancy) was determined as 0.0754. Next, AGGCAACG: 0.0725. With CCGCAAGC, the binding signal (normalized occupancy) turned out to be 0.0656.

With CCATCTGA, the binding signal (normalized occupancy) came out at 0.0849. Next, TCCTGCCA: 0.0738; ACTGCCTA: 0.0746. In the case of ACCGTGCT, the binding signal (normalized occupancy) turned out to be 0.0773. For AATCCTAT, the binding signal (normalized occupancy) came out at 0.0766. With AGGCAGAA, the binding signal (normalized occupancy) was 0.071.

With CGCGGGCC, the binding signal (normalized occupancy) worked out at 0.0655. Turning to CTGATTCA, the binding signal (normalized occupancy) is 0.0736. As for CCGGGCCC, the figure is 0.0641; as for GATCGGGA, 0.0725. For the sequence ATTTTGTG, the binding signal (normalized occupancy) was 0.0771. As to AATTCCCT, the binding signal (normalized occupancy) came to 0.0737. As for GGTCGGCA, the figure is 0.0675; as for CAGGAACC, 0.0698; as for ATCAGGTA, 0.0795. Take CAACAGTA: the binding signal (normalized occupancy) is 0.0766.

In the case of AACGTGGG, the binding signal (normalized occupancy) worked out at 0.114.

Turning to ACATCTCT, the binding signal (normalized occupancy) came out at 0.0777. Turning to GGAAGGCA, the binding signal (normalized occupancy) came out at 0.0712. Consider GGAATGTA, for which the binding signal (normalized occupancy) amounted to 0.0773. On to CGGGCGAA, for which the binding signal (normalized occupancy) turned out to be 0.0693. For CACTGCGC, the binding signal (normalized occupancy) amounted to 0.0765. For the sequence CATCGGCG, the binding signal (normalized occupancy) was found to be 0.0726. As for AAGAGTGA, the figure is 0.0797; as for ATCGTACC, 0.0757. Take AAATTAGG: the binding signal (normalized occupancy) was 0.0738. For AACGTAAC, the binding signal (normalized occupancy) was 0.0797. On to CACGAGGG, for which the binding signal (normalized occupancy) amounted to 0.134.

Take ATGTGCTG: the binding signal (normalized occupancy) is 0.0914. Take CCCCGTGA: the binding signal (normalized occupancy) was found to be 0.0848. With GGGACCAC, the binding signal (normalized occupancy) worked out at 0.078.

For AGTTGTTG, the binding signal (normalized occupancy) is 0.0694. Turning to ATAACGTG, the binding signal (normalized occupancy) amounted to 0.113.

Turning to ATTATATG, the binding signal (normalized occupancy) turned out to be 0.0821. With AACGAACA, the binding signal (normalized occupancy) came out at 0.0776. Turning to AATGAATG, the binding signal (normalized occupancy) was 0.0822. Consider TACGTGCA, for which the binding signal (normalized occupancy) was determined as 0.0875. As for ATACCAAA, the figure is 0.0737. As to TGCTAACA, the binding signal (normalized occupancy) was 0.0761. As to CTTCGCCA, the binding signal (normalized occupancy) came out at 0.069. As for TACGGCCA, the figure is 0.0676; as for ACAGACAG, 0.0721.

Turning to CAAATACC, the binding signal (normalized occupancy) stood at 0.0711.

Consider ATTATAAG, for which the binding signal (normalized occupancy) is 0.0845. Next, CAGGTTAA: 0.0776.

On to AAGTCCAT, for which the binding signal (normalized occupancy) amounted to 0.0723.

Take CCCAACTC: the binding signal (normalized occupancy) turned out to be 0.0726. Turning to CCTCTACG, the binding signal (normalized occupancy) stood at 0.0749. Take GCGCATAC: the binding signal (normalized occupancy) came out at 0.081. For the sequence AGACAAAA, the binding signal (normalized occupancy) was 0.077. Next, TCCCAGAA: 0.0707. Regarding ACATAGCC, the binding signal (normalized occupancy) was 0.0763. Next, CACCCAAA: 0.0732; CTATATAA: 0.0834; ATGAATGG: 0.0826. Consider ATGATGTG, for which the binding signal (normalized occupancy) was determined as 0.088.

As for GAACCATC, the binding signal (normalized occupancy) stood at 0.0758. In the case of TCTGAAGA, the binding signal (normalized occupancy) was found to be 0.0681. As to CGTTTCCC, the binding signal (normalized occupancy) was found to be 0.0715.

As for GTCGTAGA, the binding signal (normalized occupancy) was determined as 0.0755. For the sequence GCTTCTCC, the binding signal (normalized occupancy) was 0.0738. For the sequence GGTATCAC, the binding signal (normalized occupancy) is 0.0792. As for CCGTGGCC, the binding signal (normalized occupancy) worked out at 0.0738.

CCCGTTAC: the binding signal (normalized occupancy) came out at 0.0754. Next, AGCTCCAA: 0.0722; AGGCCTCG: 0.071; CAAGCGGA: 0.0699. As for AAGCGCGG, the figure is 0.0752; as for AATGTTTC, 0.0727. With GAATCTGA, the binding signal (normalized occupancy) amounted to 0.0779. Turning to CGTCCGGC, the binding signal (normalized occupancy) turned out to be 0.0663. Turning to AAATATGG, the binding signal (normalized occupancy) came out at 0.088.

Turning to AAGCAATG, the binding signal (normalized occupancy) turned out to be 0.0737. For the sequence GATTGTTA, the binding signal (normalized occupancy) amounted to 0.078. As for CCGCGTTC, the binding signal (normalized occupancy) was 0.0716. Next, GTTTAGTA: 0.0763; GAGTGAGC: 0.0678; CCAGAACA: 0.0795. As to GCCCAGCC, the binding signal (normalized occupancy) is 0.0665.

Regarding GGACCACC, the binding signal (normalized occupancy) came to 0.0805. Take GACGCGCC: the binding signal (normalized occupancy) came out at 0.0717. Consider CATCGATA, for which the binding signal (normalized occupancy) was found to be 0.0857. Consider TCGGCCAA, for which the binding signal (normalized occupancy) is 0.0676. ACGAGGCT: the binding signal (normalized occupancy) was determined as 0.0805. As for CCTTTACG, the binding signal (normalized occupancy) came out at 0.0763. As for GTCATTTA, the figure is 0.0791.

In the case of GAATAGAC, the binding signal (normalized occupancy) is 0.0771.

On to CGTAATAA, for which the binding signal (normalized occupancy) was 0.0849. As for AGCCGCCG, the figure is 0.0691; as for ACGTACTA, 0.0792; as for CTCTGGAC, 0.0728. Take GCTCAGCC: the binding signal (normalized occupancy) is 0.0668. Take AAAAAAAG: the binding signal (normalized occupancy) was found to be 0.0729. In the case of AATATGAC, the binding signal (normalized occupancy) was 0.0855. As for ATCATTCG, the figure is 0.0804. Regarding CCATTCAA, the binding signal (normalized occupancy) turned out to be 0.0785.

Regarding ACAATACG, the binding signal (normalized occupancy) worked out at 0.0788. Next, AAGCCGTG: 0.0718; CCTAGGAG: 0.07.

Regarding AATACTTC, the binding signal (normalized occupancy) was 0.0703. As to GCTGGGAA, the binding signal (normalized occupancy) worked out at 0.0701.

Take AGAGGGCC: the binding signal (normalized occupancy) amounted to 0.0698.

As for CAATGAAA, the binding signal (normalized occupancy) stood at 0.0789. As for CTAATCGC, the binding signal (normalized occupancy) turned out to be 0.0743. Turning to AAGAACTG, the binding signal (normalized occupancy) was 0.0705. For the sequence ACAGAATC, the binding signal (normalized occupancy) amounted to 0.0764.

As for ACGTCATG, the binding signal (normalized occupancy) turned out to be 0.0885. Turning to GGATCGAA, the binding signal (normalized occupancy) stood at 0.0695. With AATCGACT, the binding signal (normalized occupancy) came out at 0.0753. For the sequence AGGACTTA, the binding signal (normalized occupancy) stood at 0.0758. On to TAAGCAAA, for which the binding signal (normalized occupancy) was found to be 0.0761.

For TAACCGAA, the binding signal (normalized occupancy) was 0.0753. Consider AGTTAATA, for which the binding signal (normalized occupancy) came out at 0.0765. As for CTCGCTGC, the figure is 0.0727. With AGATGCCA, the binding signal (normalized occupancy) was 0.0772. As for CTTATTTA, the figure is 0.0763; as for CACGTATG, 0.0833. Turning to GTCTGAAC, the binding signal (normalized occupancy) amounted to 0.0742. For CCGCTGCA, the binding signal (normalized occupancy) was 0.0719.

In the case of TCACAGGA, the binding signal (normalized occupancy) was determined as 0.0749. ATAGGCTA: the binding signal (normalized occupancy) is 0.0718. As for CGTCGGAG, the binding signal (normalized occupancy) came to 0.0693. For the sequence CCCGCAAC, the binding signal (normalized occupancy) was found to be 0.0713. As for AGTGCCAC, the figure is 0.0792. Regarding AGCTGACA, the binding signal (normalized occupancy) is 0.0754. Take CACGATGG: the binding signal (normalized occupancy) was 0.0884. As for GTTCTGAA, the figure is 0.0695; as for CAGAATAA, 0.079; as for ACATTTAA, 0.0785. On to CGGGCACC, for which the binding signal (normalized occupancy) stood at 0.0692. Next, CCGGGTTA: 0.0708; AACTGCCG: 0.0701; CCCAACAA: 0.0757.

With CGAAATCA, the binding signal (normalized occupancy) worked out at 0.0721.

On to CGTAGAAA, for which the binding signal (normalized occupancy) came out at 0.0757. In the case of AATAGTTG, the binding signal (normalized occupancy) worked out at 0.0772. Consider GAGTTAGA, for which the binding signal (normalized occupancy) came to 0.073. For the sequence CTTTTGCA, the binding signal (normalized occupancy) is 0.0687. With AGGCACTG, the binding signal (normalized occupancy) came to 0.0696.

ACCATTTA: the binding signal (normalized occupancy) is 0.0797. For the sequence AATATCTC, the binding signal (normalized occupancy) was 0.0744.

Turning to ATTTTTCG, the binding signal (normalized occupancy) stood at 0.0793. Take CACCACGG: the binding signal (normalized occupancy) came out at 0.0774. In the case of AAATCACA, the binding signal (normalized occupancy) turned out to be 0.0795.

In the case of CGTCTCAC, the binding signal (normalized occupancy) amounted to 0.079.

For the sequence GATTTTAA, the binding signal (normalized occupancy) amounted to 0.0718.

Consider TAAAAATA, for which the binding signal (normalized occupancy) is 0.0717. Turning to AAGTGGAT, the binding signal (normalized occupancy) stood at 0.0727. In the case of AACCGAGA, the binding signal (normalized occupancy) worked out at 0.0705. Take AATCCCAA: the binding signal (normalized occupancy) came out at 0.0748. On to GGAAACAA, for which the binding signal (normalized occupancy) came out at 0.0763. Next, ACTCTACG: 0.0734. Regarding ATACAAAA, the binding signal (normalized occupancy) was determined as 0.078. Consider GCGAGGCA, for which the binding signal (normalized occupancy) was 0.0757. Regarding CTTCAAAA, the binding signal (normalized occupancy) was 0.0709.

CATCATAG: the binding signal (normalized occupancy) stood at 0.0846. Regarding CAGTACAG, the binding signal (normalized occupancy) was determined as 0.0802. Regarding ACGCTAGG, the binding signal (normalized occupancy) stood at 0.0754. In the case of TCTGCTCA, the binding signal (normalized occupancy) came to 0.0738. Turning to CGTCTTGA, the binding signal (normalized occupancy) was determined as 0.0702.

Take ATTGGCTC: the binding signal (normalized occupancy) came to 0.076. Next, ACCCTCGC: 0.0757; GGATAACA: 0.0808; ACCTAATA: 0.0777. Take TTGCGAAA: the binding signal (normalized occupancy) worked out at 0.0693.

For AAAGTTCA, the binding signal (normalized occupancy) amounted to 0.0739. With CCAGTCGA, the binding signal (normalized occupancy) amounted to 0.0666.

With AAGTTACC, the binding signal (normalized occupancy) was determined as 0.0714.

In the case of ATAGCCTC, the binding signal (normalized occupancy) worked out at 0.0788.
